# Assay results reported in PubChem BioAssay AID504832 (National Center for Advancing Translational Sciences (NCATS), 2011).
# Out of some 310,000 compounds screened, about 18,000 (5.8%) were called active. Inconclusive means that the source gave no clear call. Such entries were picked first, then a sample of the others. Calls follow the shape of the dose curve; as a rule, active = well fitted inhibition curve with a large enough effect; inconclusive = small, poorly fitted or top-dose-only effect, or another doubt; inactive = no such curve, though single readings can be large or run the other way. Potencies of inconclusive entries are left out as doubtful fits.
# Assay: Primary qHTS for delayed death inhibitors of the malarial parasite plastid, 48 hour incubation
# Conditions: P. falciparum luciferase growth in erythrocytes; series mostly up to 28.7 µM; activity change, negative = inhibition: at the top concentration
# Outline: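 Compounds are pin-transferred into medium, infected erythrocytes (2% hematocrit, 0.1% parasitemia final) are added, and plates sit one parasite generation at 37 C in 5% CO2. Detection reagent is then added and luminescence measured.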
# % is scaled to controls: 0 for no effect and ±100 for the full control effect; potency is read from the fitted curve at half-maximal effect; tags tell the direction and shape of the fitted curve.
Compound,Potency,"activity change, negative = inhibition"
Cc1ccc2cccc(NC(=S)NC(=O)c3ccccc3)c2n1,"inconclusive [inhibitor, single point]",–
C/C(=N\NC(=O)c1ccc(N)cc1)C1CC1,–,inactive: 8.25%
CCOc1ccc(NC(=S)N2CCCN(Cc3cc(C)ccc3C)C2)cc1,"inconclusive [inhibitor, partial curve, poor fit]",–
COC(C(=O)Nc1cccc([N+](=O)[O-])c1)c1ccccc1 (centres undefined),–,inactive: 9.98%
Cc1cccc(CN2C(=O)NC(c3ccccc3)(c3ccccc3)C2=O)c1,active: 10.4 µM,–
COC1CCN(Cc2cn(Cc3ccccc3)nc2-c2cc3ccccc3o2)CC1,active: 10.4 µM,–
Cc1ccc(CC2SC(=O)NC2=O)cc1Cl (centres undefined),–,inactive: 13.7%
CCOc1cccc(NC(=O)C2CC(=O)N(C)C(=Nc3cccc(F)c3)S2)c1 (centres undefined),"inconclusive [inhibitor, single point]",–
Cc1[nH]c(=O)[nH]c(=O)c1/C=N/NC(=O)[C@H](C)N,"inconclusive [inhibitor, partial curve, poor fit]",–
O=C(CN1C2=NCCN2c2ccccc21)c1ccc2c(c1)OCO2,"inconclusive [inhibitor, single point]",–
O=C(c1cccc(C(=O)N(c2ccccn2)C2CCCCC2)c1)N(c1ccccn1)C1CCCCC1,active: 11.7 µM,–
COc1cc(CC(=O)O)c(C(C)=O)cc1OC,–,inactive: 7.13%
CC(C)CCn1c(=O)c2ccccc2n2c(=S)[nH]nc12,–,inactive: 15.9%
O=C(NC1CCCC1)C(c1ccc(O)cc1)N(CC1CCCO1)C(=O)C1COc2ccccc2O1 (centres undefined),"inconclusive [inhibitor, single point]",–
COc1ccc(CCNc2oc(COc3ccc(F)cc3)nc2C#N)cc1,"inconclusive [inhibitor, single point]",–
COc1ccc2c(c1OC)C(=O)N1C2SC(C)(C)[C@H]1C(=O)NCC(C)C (some centres undefined),"inconclusive [inhibitor, single point]",–
COc1ccc(CCn2c(O)c(/C=N/N3CCCCC3)c(=O)[nH]c2=O)cc1OC,–,inactive: 3.49%
COc1ccc(-c2noc(CN3CCCC(OCc4ccccn4)C3)n2)cc1 (centres undefined),"inconclusive [inhibitor, single point]",–
COc1ccc2cc(C(=O)C3CCCN(C(=O)c4ccnn4C)C3)ccc2c1 (centres undefined),"inconclusive [inhibitor, single point]",–
COc1ccccc1C(=O)NCC(c1cccs1)N1CCc2ccccc21 (centres undefined),active: 11.7 µM,–
CCCCN1C(=O)CN(CCc2ccccc2)C(=O)C1c1ccc(OC)cc1 (centres undefined),"inconclusive [inhibitor, partial curve, poor fit]",–
Cn1nc(C(F)(F)F)c(-c2ccc(Br)cc2)c1NC(=O)CSCC(=O)O,"inconclusive [inhibitor, single point]",–
Cc1cc(C)cc(N(CCC#N)C(=O)COC(=O)CNC(=O)c2sc3ccccc3c2Cl)c1,–,inactive: 24.7%

Compound,Potency,"activity change, negative = inhibition"
Cc1nn(-c2cc(C(F)(F)F)ccc2Cl)c2nc(C(Cl)(Cl)Cl)[nH]c(=O)c12,"inconclusive [inhibitor, partial curve]",–
CCCCCCC(=O)N1C/C=C\C(c2ccc(OC)cc2)N(Cc2ccc(F)cc2)C(=O)C1 (centres undefined),"inconclusive [inhibitor, single point]",–
CCOc1ccc(NC(=O)CCc2nnc3ccc(N4CCC(C)CC4)nn23)cc1,active: 9.28 µM,–
FC(F)(F)c1cnc(N2CCN(C(=S)NCc3ccccc3)CC2)c(Cl)c1,–,inactive: 11.8%
CC(C)(C)NC(=O)COC(=O)c1ccc(Cl)nc1,–,inactive: -1.03%
CCC(=O)Nc1sc2c(c1C(N)=O)CCN(C(C)=O)C2,–,inactive: -1.48%
CCOC(=O)N1CCN(Cc2nc3cc(NC(=O)CC(C)C)ccc3n2CC)CC1,"inconclusive [inhibitor, partial curve]",–
Cc1ccc(C(=O)Nc2ccc(Br)c(C(F)(F)F)c2)cc1,"inconclusive [inhibitor, single point]",–
Cc1cccc(-n2ncc3c(NCc4cccnc4)ncnc32)c1,–,inactive: 91.1%
CCN1CCCC1CNC(=O)C(NC(=O)C1CCC(C)CC1)C(C)C (centres undefined),"inconclusive [inhibitor, single point]",–
CCOC(=O)N1CCN(C(=O)c2cn(C)c3ccc(S(=O)(=O)N4CCC(C)CC4)cc3c2=O)CC1,"inconclusive [inhibitor, full curve, poor fit]",–
Cc1ccc(CCNC(=O)CCNS(=O)(=O)c2ccc3c(c2)oc(=O)n3C)cc1,"inconclusive [inhibitor, single point]",–
C/C=C/c1ccc(OCC(=O)Nc2ccc(OC)c(OC)c2)c(OC)c1,"inconclusive [inhibitor, partial curve, poor fit]",–
CCOc1ccc(N(CC(=O)Nc2ccc(C)c(C)c2)S(C)(=O)=O)cc1,–,inactive: 122%
CSCCC(NC(=O)c1ccc(Cl)cc1Cl)C(=O)NNC(=O)c1ccncc1 (centres undefined),–,inactive: -1.65%
COc1ccc2c(c1)OC[C@H]1[C@H]2N2C(=O)CN(CCc3c[nH]c4ccccc34)C(=O)[C@@]2(C)[C@H]1c1ccccc1,active: 11.7 µM,–
COc1c(N2CCN(C(=S)NC3CC4CCC3C4)C(C)C2)c(F)cc2c(=O)c(C(=O)O)cn(C3CC3)c12 (centres undefined),"inconclusive [inhibitor, partial curve]",–
COc1ccccc1C1CC(c2c(-c3ccccc3)c3cc(Cl)ccc3[nH]c2=O)=NN1S(C)(=O)=O (centres undefined),active: 11.7 µM,–
C=CCN(C(=O)c1ccccc1)c1ccc(OC)cc1,"inconclusive [inhibitor, partial curve, poor fit]",–
CCC1(C)Cc2ccccc2-c2nc(-c3ccccc3)oc(=O)c21 (centres undefined),"inconclusive [inhibitor, single point]",–
Cc1ccc2[nH]c(=O)c(CN(CCCN3CCOCC3)Cc3nnnn3C3CCCC3)cc2c1,"inconclusive [inhibitor, partial curve, poor fit]",–
COc1ccc(NC(=O)c2ccc([N+](=O)[O-])cc2[N+](=O)[O-])c(OC)c1,–,inactive: 9.19%
CC1CN(Cc2cc(=O)oc3cc(O)ccc23)CC(C)O1 (centres undefined),"inconclusive [inhibitor, partial curve]",–

Compound,Potency,"activity change, negative = inhibition"
O=C(NCC1CCN(c2ccc(S(=O)(=O)N3CCOCC3)cc2)CC1)Nc1ccccc1F,"inconclusive [inhibitor, partial curve, poor fit]",–
CCCN(CC(=O)Nc1ccccc1C)C(=O)COc1c(C)cccc1C,"inconclusive [inhibitor, partial curve, poor fit]",–
Cc1nn(Cc2ccccc2Cl)c2sc(C(=O)Nc3nccs3)cc12,"inconclusive [inhibitor, single point]",–
C=CCNc1nc(-c2ccccc2)nc(-n2ccnc2)n1,active: 13.1 µM,–
O=c1c2ccccc2nc(-c2ccc([N+](=O)[O-])cc2)n1O,"inconclusive [inhibitor, single point]",–
COc1ccc(-n2nc(C(=O)NCC(=O)N3CCCC(C)C3)c3ccccc3c2=O)cc1 (centres undefined),"inconclusive [inhibitor, single point]",–
COc1ccc(NC(=O)COc2ccc3oc(=O)cc(C)c3c2)cc1,"inconclusive [inhibitor, single point]",–
COCCN(CC1CCCN(C2Cc3ccccc3C2)C1)C(=O)c1cccc(C)c1 (centres undefined),"inconclusive [inhibitor, single point]",–
CC(NC(=O)/C=C/c1ccco1)c1nc2ccccc2n1Cc1cccc(Cl)c1 (centres undefined),active: 13.1 µM,–
COc1ccccc1N(CC(O)COc1ccccc1C)S(=O)(=O)c1ccccc1 (centres undefined),"inconclusive [inhibitor, single point]",–
CC1(C)CN=C(NCc2ccccc2Cl)S1,"inconclusive [inhibitor, single point]",–
Cc1ccc(S(=O)(=O)N2CCN(CC(=O)N(CC(C)C)c3c(N)n(CC(C)C)c(=O)[nH]c3=O)CC2)c(C)c1,"inconclusive [inhibitor, single point]",–
CCN(CC)CCC(c1ccc2c(c1)OCO2)c1c(OC)cc(OC)c2c(-c3ccccc3)cc(=O)oc12 (centres undefined),active: 9.28 µM,–
C#CCCC(=O)c1ccccc1/C=[N+](\[O-])c1ccccc1,active: 1.17 µM,–
Cc1ccc(CS(=O)(=O)Cc2ccc(C(=O)NCCc3ccccc3)o2)cc1,"inconclusive [inhibitor, single point]",–
Cc1sc(N)c(C(=O)c2ccccc2)c1C,–,inactive: -13.8%
CCOC(=O)c1c(S(=O)(=O)N2CCN(c3ccc(F)cc3)CC2)c(C)n(C)c1C,–,inactive: -7.21%
O=[N+]([O-])c1cccnc1Oc1ccc(C2SCCS2)cc1,active: 4.65 µM,–
Cc1cc(OCC(=O)OCC(=O)Nc2cccnc2Cl)ccc1Cl,"inconclusive [inhibitor, single point]",–
CCCCN(C(=O)c1cccc(-n2cnnn2)c1)c1c(N)n(CC(C)C)c(=O)[nH]c1=O,"inconclusive [inhibitor, single point]",–
O=C(COc1ccccc1)NCC(=O)N/N=C/c1cc(Br)ccc1OCc1ccccc1,"inconclusive [inhibitor, single point]",–
Cc1ccc(-n2nc(-c3cccs3)cc2C(=O)NCC2CCCO2)c(C)c1 (centres undefined),"inconclusive [inhibitor, single point]",–
O=C(NCc1ccc(F)cc1)C(c1cccnc1)N(C(=O)c1csnn1)c1ccccc1 (centres undefined),–,inactive: -26.1%
